Measured values published in the RNAGym collection of RNA variant scans (doi:10.1073/pnas.2313332121).
This sample is rich in variants without activity.

B1: TPR 5TU (parent)
chain: GGAUCUUCUCGAUCUAACAAAAAAGACAAAUCUGCCACAAAGCUUGAGAGCAUCUUCGGAUGCAGAGGCGGCAGCCUUCGGUGGCGCGAUAGCGCCAACGUUCUCAACUAUGACACGCAAAACGCGUGCUCCGUUGAAUGGAGUUUAUCAUG

Variants of: B1
Assay: polymerase ribozyme fitness, log enrichment relative to wild type (log ratio); higher = more active; in vitro selection for triplet polymerase activity
Summary of the method: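 Genotype fitness is the logarithm of its enrichment divided by wild-type enrichment, using inverse-variance-weighted averages of replicates. That logarithm is base 2. Enrichment was measured by Illumina sequencing of input and output libraries from one triplicate in vitro selection round, with frozen incubation at −7 °C, on PCR-built, transcribed mutant libraries of each subunit of a heterodimeric triplet polymerase ribozyme, retaining genotypes with ≥10 input reads and ≥1 read per output.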
In the case of GGAUCUUCUCGAUCUAACAGAAAAGACAAAUCUGCCACAAAGCUUGAGAGCAACUUCGGAUGCAGAGGCGGCAGCCUUCGGUGGCGCGAUAGCGCCAACGUUCUCAACUAUGACACGCAAAACGCGUGCUCCGUUGAAUGGAGUUUAUCAUG [A20G U53A], the “polymerase ribozyme fitness (log ratio)” value is reported as -1.01.
With GGAUCUUCUCGAUCUAACAUAUAUGACAAAUCUGCCACAAAGCUUGAGAGGAUCUUCGGAUGCAGAGGCGGCAGGCUUCGGUGUCGCGAUUGCGCCAACGUUCUCAAAUAUGACACGCAAAACGCGUGCUCCGUUGAAUGGAGUUUAUCAUG [A20U A22U A24U C51G C75G G84U A91U C108A] the “polymerase ribozyme fitness (log ratio)” value was at most -4.2.
With GGAUCUUCUCGAUCUAACAGAAAAGACAAAUCUGCCACAAAGCUUGAGAGCAUCUUCGGAUGCAGAGGCGGCAGCCUUCGGUAGCGCCAUAGGGCCAACAUUCUCAACUAUGACACGCAAAACGCGUGCUCCGUUGAAUGGAGUUUAUCAUG [A20G G83A G88C C93G G100A] the “polymerase ribozyme fitness (log ratio)” value was at most -4.2.
For GGAUCUUCUCGAUCUAACAGAAAAGACAAAUCUGCCACAAAGCUUGAGACCAUGUUCGGAUGCAGAGGCGGCAGCCUUCGGUGGCGCGAUAGCGCCAACGUUCUGUACUAUGACACGCAAAACGCGUGCUCCCUUGAAUGGAGUUUAUCAAG [A20G G50C C54G C105G A106U G133C U151A], the “polymerase ribozyme fitness (log ratio)” value was at most -4.2.
With GGAUCUUCUCGAUCUAACAGAAAAGACAAAUCUGCCACAAAGCUUGAGAGCAACUACAGAUGCAGAGGUGGCAGCCUUCGGUGGCGCGAUAGUGCCAACGUUCUCAACUAUGACACGCAAAACGCGUGCUCCGUUGAAUGGAGUUUAUCAUG [A20G U53A U56A G58A C69U C93U] the “polymerase ribozyme fitness (log ratio)” value was -3.35.
For GGAUCUUCUCGAUCUAACAUCAAAGACAAAUCUGCCACAAAGCUUGAGAGCAUCUUCGGAUGCAGAGGCGGCAGCCUUCGGUGGCGCGAUAGCGCCAACGUACUCAACUAUGACACGCAAAACGGGUGCUCCGUUGAAUGGAGUUUAUCAUG [A20U A21C U102A C125G], the “polymerase ribozyme fitness (log ratio)” value was -3.5.
With GGAUCUUCUCGAUCUAACAGAAAAGACAAAUCUGCCACAAAGCUUGAGAGCAUCUUCGGAUGCAGAGUCCGCAGCGUUCGGUGGCGCGAUAGCGCCAACGUUCUCAACUAUGACAUGCAAAACGCGUGCUCCGUUGAAUGGAGUUUAUCAUG [A20G G68U G70C C76G C116U] the “polymerase ribozyme fitness (log ratio)” value was at most -4.2.
With GGAUCUUCUCGAUCUAACAUUAAAGACAAAACUGCCACAAAGCUUGCGAGCAUCAUCGGGUCCAGCGGCGGAAGCCUUCGGUGGCGCGAUAGCGCCAACGUUCUCAACUCUGACACGCAAAACGCGUGCUCCGUUGAAUGGAGUGUAUCAUG [A20U A21U U31A A47C U55A A60G G62C A66C C72A A110C U145G] the “polymerase ribozyme fitness (log ratio)” value was at most -4.2.
With GGAUCUUCUCGAUCUAACAGAAAAGACAAAUCUGCCACAAAGCUUGAGAGCAUCAUCGGAUGCAGAGGCGGCAGCCUUCGGUGGCGCGAUAGCGCAAACGUUCGCAACUAUGACACGCAAAACGCGUGCUCCGUUGAAUGGAGUUUAUCAUG [A20G U55A C96A U104G] the “polymerase ribozyme fitness (log ratio)” value was -2.4.
With GGAUCUUCUCGAUCUAACAGAAAAGACAAAUCUGCCACAAAGCUUGAGAGCAUCUUCGGAUGCAGAGGCGGCAGCCUUCGGUGGCGCGAUAGCGCCAACGUUCUCAACUAUGACACGCAAAACUCGUGCUCCGUUGAAUGGAGUUUAUCAUG [A20G G124U] the “polymerase ribozyme fitness (log ratio)” value was -0.645.
For GGAUCUUCUCGAUCUAACAGAAAAGACAAAUCCGCCACAAAGCUUGAGAGCAUCUUCGGAUGCAGAGGCGGCAGCCUUCGGUGGCGUGGUAGCGCCAACGUUCUCAACUAUGACACGCAAAACGCGUGCUCCGUUGAAUGGAGUUUAUCAGG [A20G U33C C87U A89G U151G], the “polymerase ribozyme fitness (log ratio)” value was at most -4.2.
With GGAUCUUCUCGAUCUAACAGAAAAGACAAAUCUGCCACAAAGCUCGAGAGCAUCUGUGGAUGCAGAGGCGGCAGACUUCGGUGGCGGGAUAGCGCCAACGUUCUCAACUAUGACACGCAAAACGCGUGCUCCGUUCAAUGGAGUUUAUCAUG [A20G U45C U56G C57U C75A C87G G136C] the “polymerase ribozyme fitness (log ratio)” value was at most -4.2.
With GGAUCUUCUCGAUCUAACAGAAAAGACAAAUCUGCCACAAAGCUUGAGAGCAUCUUCCGAUGCAGAGGCGGCAGCCGUCGGUGGCGCGAUAGCGCCAUCAUUCUCAACUAUGACACGCAAAACGCGUGCUCCGUUGAAGGGAGUUUAUCAUG [A20G G58C U77G A98U G100A U139G] the “polymerase ribozyme fitness (log ratio)” value was at most -4.2.
In the case of GGAUCUUCUCGAUCUAACAGAAAAGACAAAUCUGCCACAAAGCUUGAGAGCAUCUUCGGAUGCAGAGGCGGCAGCCAUCGGUGGCGCGAUAGCGCCAACGUUCUCAACUAUGACACGCAAAACGCGUGCUCCGUUGAAUGGAGUUUAUCAUG [A20G U77A], the “polymerase ribozyme fitness (log ratio)” value is reported as at most -4.2.
For GGAUCUUCUCGAUCUAACAGAAAAGACAAAUCUGCCACAAAGCUUGAGAGCAUCUUCGGAUGCAGAGGCGGCAGCCUUCGGUGGCGCGAUAGCGCCAACGUUCUCAACUAUGACACGCAAAACGCGUGCUCCGUUAAAUGGAGUUUAUCAUG [A20G G136A], the “polymerase ribozyme fitness (log ratio)” value was 0.27.
With GGAUCUUCUCGAUCUAACAGAAAAGACAAAUCUCCCACAAAGCUUGAGAGCAUGUUCCGAUGCAGAGGCGACAGCCUUCGGUGGCGCGAUAGCGCUAACGUUCUCAACUAUGACACGCAAAACGCGUGCUCCGUUGAAUGGAGUUUAUCAUG [A20G G34C C54G G58C G71A C96U] the “polymerase ribozyme fitness (log ratio)” value was at most -4.2.
For GGAUCUUCUCGAUCUAACAGAAAAGACAAAUCUGCCACAAAGCUUGAGAGCAUCUGCGGAUGCAGAGGCGGCAGCCUUCGGUGGCGCGAUAGCGCCAACGUUCUCAACUAUGACACCCAAAACGCGUGCUCCGUUGAAUGGAGUUUAUCAUG [A20G U56G G117C], the “polymerase ribozyme fitness (log ratio)” value was -0.934.
In the case of GGAUCUUCUCGAUCUAACAGAAAAGACAAAUCUGCCACAAAGCUUGAGAGCAUCAUCGGAUGGAGAGGCGGCAGCCUUCCGUGGCGCGAUAGCGCUAACGUUCUCAACUAUGACACGCAAAACGCGUGCUCCGUUGAAUGGAGUUUAUCAUG [A20G U55A C63G G80C C96U], the “polymerase ribozyme fitness (log ratio)” value is reported as at most -4.2.
For GGAUCUUCUCGAUCUAACAGAAAAGACAAAUCUGCCACAAAGCUUGAGAGCAUCUUCGGAUGCAGAGGCGGCAGCCUUCGGUGUCGCGAUAGCGCCAACGUUCUCAACUAUGACACGCUAAACGCGUGCUCCGUUGAACGGAGUUUAUCAUG [A20G G84U A119U U139C], the “polymerase ribozyme fitness (log ratio)” value was at most -4.2.
